Measured values: PubChem BioAssay AID1963576 (National Center for Advancing Translational Sciences (NCATS), 2024)
Among all 46,000 compounds or so, about 60 (0.1%) were called active. Inconclusive results (about 3%) are left out. Calls follow the shape of the dose curve; as a rule, active = well fitted inhibition curve with a large enough effect; inconclusive = small, poorly fitted or top-dose-only effect; inactive = no such curve, though single readings can be large or run the other way. This is one part of the list.

Test: Primary qHTS assay for Inhibitors of ovarian cancer metastasis using an organotypic tumor microenvironment (TME) model. Also: nearly all actives have a fitted effect of over 65% in size.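 As to activity change, negative = inhibition: plate controls were DMSO wells for no effect and tomatine positive control wells for full effect.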
Conditions: SKOV3ip1-GFP adhesion/invasion on 3D omental model, fluorescence; series mostly up to 45.8 µM; activity change, negative = inhibition: at the top concentration
How it was run: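 Adhesion/invasion was scored as fixed GFP-labeled SKOV3ip1 cell counts (488/509 nm), normalized to DMSO and tomatine controls. Cancer cells in serum-free medium, with four compound doses (0.36-46 umol/L), sat 2 hr at RT then 16 hr at 37 C on a 48 hr fibroblast/mesothelial/ECM culture.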

| SMILES | activity change, negative = inhibition | outcome |
| --- | --- | --- |
| CCc1ccc(-n2c(=O)c3c(C)c(C)sc3n(CC(=O)NCc3ccc(C)cc3)c2=O)cc1 | inactive: -0.955% | – |
| CCOC(=O)c1ccc(NC(=O)/C(C#N)=C/c2ccc(OC)cc2)cc1 | – | inactive |
| COc1cc(/C=C(\C#N)c2nc3ccccc3[nH]2)cc(Cl)c1OCc1ccccc1Cl | inactive: 16.3% | – |
| Cc1ccc(CSc2oc(-c3ccco3)nc2S(=O)(=O)c2ccc(C)cc2)cc1 | inactive: 2.38% | – |
| COc1cc2nc(SCC(=O)Nc3c(C)cc(C)cc3C)n3nc(CCn4c(C)nc5ccccc54)nc3c2cc1OC | inactive: -4.92% | – |
| Cc1ccc(NS(=O)(=O)c2ccc3[nH]c(=O)oc3c2)c(C)c1 | inactive: 6.6% | – |
| CCCn1c2ccccc2c2cnn(CC(=O)N(C)c3ccccc3CC)c(=O)c21 | inactive: -4.6% | – |
| CC(=O)NCC(c1ccc2c(c1)OCO2)N1CCN(c2ccccc2)CC1 (configuration not stated) | inactive: 14.2% | – |
| CCc1cccc(C)c1NC(=O)c1cc(S(=O)(=O)NCc2ccccc2Cl)ccc1F | inactive: 2.23% | – |
| COc1ccccc1CNC(=O)CCn1c(=O)c2ccccc2n(CC(=O)Nc2ccc(C)cc2Cl)c1=O | inactive: 31.4% | – |
| Fc1ccc(C(NCCc2ccc(Cl)cc2)c2nnc(-c3ccccc3)o2)c(Cl)c1 (configuration not stated) | inactive: 0.367% | – |
| CCOC(=O)c1c(S(=O)(=O)NCC(=O)N2CCN(c3ccccc3)CC2)c(C)n(C)c1C | – | inactive |
| Cc1c(NC(=O)Nc2ccc(Br)cc2F)sc2nc3n(c(=O)c12)CCC(C)CC3 (configuration not stated) | inactive: 4.39% | – |
| CN(C)CCCN(C(=O)c1ccc(Br)s1)c1nc2ccc(F)cc2s1 | inactive: 0.498% | – |
| Cc1ccc2cccc(NC(=O)COc3cc(C)c(Cl)c(C)c3)c2n1 | inactive: -8.01% | – |
| COc1ccc(CCNC(=O)Cn2c(=O)nc(-c3ccccc3)c3ccccc32)cc1OC | inactive: 7.01% | – |
| COc1ccc(N(CC(=O)NCc2ccccc2Cl)S(=O)(=O)c2c(C)nn(C)c2C)cc1 | inactive: -6.46% | – |
| CCOc1ccc(C(=O)c2cn(CC(=O)Nc3ccc(F)cc3)c3cc4c(cc3c2=O)OCO4)cc1 | inactive: 0.308% | – |
| CCOc1ccccc1CNC(=O)CCCn1ncn2c(cc3occc32)c1=O | – | inactive |
| CCCSCCCNC(=O)C1CCCN(c2nn3cc(-c4ccc(OC)cc4)nc3s2)C1 (configuration not stated) | inactive: -3.33% | – |
| Cn1c(=O)c(=O)n(C)c2cc(NC(=O)c3cccc(F)c3)c(Cl)cc21 | inactive: -0.919% | – |
| Cc1ccc(CCNC(=O)CCn2nc(-c3ccccc3)ccc2=O)cc1 | – | inactive |
| CCCCN(CC)CCNC(=O)CN1C(=O)COc2ccc(S(=O)(=O)N3CCCC3)cc21 | – | inactive |
| Cc1nn(CC(=O)Nc2ccccc2C(F)(F)F)c(=O)c2cccn12 | inactive: 5.12% | – |

| SMILES | activity change, negative = inhibition | outcome |
| --- | --- | --- |
| O=C(NCCc1ccccc1)c1ccc(Cn2c(SCc3cccc(F)c3)nc3cccnc32)cc1 | – | inactive |
| CCOc1ccc(C(=O)Nc2c(C(=O)c3ccc(OC)cc3)oc3ccccc23)cc1 | – | inactive |
| COc1ccc(NC(=O)c2ccc3nc(CCc4ccccc4)oc3c2)c(OC)c1 | inactive: -8.24% | – |
| Cc1ccccc1NC(=O)N1CCc2c(sc3c2CCCC3)C1c1ccccc1 (configuration not stated) | inactive: -2.86% | – |
| CCc1ccccc1NC(=O)Cn1c(=O)n(-c2ccc(C)cc2)c(=O)c2c1c1cc(C)ccc1n2C | – | inactive |
| Cc1nc2ncnn2c(C)c1CCC(=O)N1CCN(c2ccccc2)CC1 | – | inactive |
| O=C(Cn1c(=O)oc2cc(Cl)ccc21)Nc1cccc(C(F)(F)F)c1 | inactive: -0.8% | – |
| CCC(=O)Nc1ccc(CC)cc1-c1nc2ccccc2n(CC(=O)Nc2cccc(Cl)c2)c1=O | inactive: -1.4% | – |
| CCCCCn1cc2c(c1-c1ccc(Br)cc1)c(=O)n(C)c(=O)n2C | – | inactive |
| COc1ccc(CCNC(=O)CCCCn2c(=O)c3ccccc3n(Cc3ccccc3C)c2=O)cc1OC | inactive: 9.65% | – |
| COc1cc(C(CC(=O)Nc2ccc(F)cc2F)N2Cc3ccccc3C2=O)cc(OC)c1OC (configuration not stated) | – | inactive |
| COCCNC(=O)CCc1c(C)nc2c(-c3ccc(F)cc3)c(C)nn2c1C | inactive: -1.23% | – |
| CCS(=O)(=O)c1ncc(N(Cc2ccccc2)Cc2ccco2)c(C(=O)Nc2ccc(C)c(C)c2)n1 | inactive: -0.229% | – |
| CCOc1ccc(NC(=O)c2ccc3c(=O)n4nc(Nc5ccccc5C)sc4nc3c2)cc1 | inactive: 2.27% | – |
| CCn1c(NCc2ccc(OC)cc2)nc2ccccc21 | inactive: 2.55% | – |
| Cc1cc2c(cc1C)NC(CC(=O)Nc1ccccc1)C(=O)N2 (configuration not stated) | inactive: -4.24% | – |
| CCN(Cc1ccccc1)C(=O)Cn1cc(S(=O)(=O)Cc2cccc(Cl)c2)c2ccccc21 | inactive: 24.9% | – |
| Cc1ccc(O)c(NC(=O)c2ccc(Br)c(S(=O)(=O)N3CCCCC3)c2)c1 | inactive: -5.43% | – |
| Cc1ccccc1CSc1nc2cc(C(=O)NC3CCCC3)ccc2c(=O)n1Cc1ccccc1 | inactive: -4.89% | – |
| Cc1ccc(-n2nc(CO)c(C(=O)NC(C)CCCc3ccccc3)n2)cc1C (configuration not stated) | – | inactive |
| CC1CCN(C(=O)CSc2c(C(C)C)cnc3c2c(=O)n(C)c(=O)n3C)CC1 | inactive: 5.51% | – |
| COC(=O)CC1Oc2ccccc2-n2cc(-c3ccccc3)nc21 (configuration not stated) | inactive: 5.05% | – |
| O=C(CCCn1c(=O)c2cccn2c2ccc(F)cc21)NCc1ccc(Cl)cc1 | – | inactive |
